# Laboratory results reported in US7875616B2, “Use of tyrosine kinase inhibitor to treat diabetes” (priority 2003, dated 2011).
# Tests used:
# [1] = test system: isolated rat islets; assay: NO- and cytokine-induced islet cell death, vital staining with propidium iodide + bisbenzimide; type: cell-based; conditions: 24 h; for necrotic cells, percentage of total cell number: 10 μM Compound I, mean ± SEM, n=3
# Method: Following the incubation period, islets are vital stained with propidium iodide+ bisbenzimide and photographed in a fluorescence microscope. Apoptotic (white condensed or fragmented nuclei) and necrotic (red or pink non-fragmented nuclei) are counted and expressed as percentage of total cell number.
# [2] = test system: human islets; conditions: Brefeldin A 10 μM, 10 μM Salt I, 24 h
# [3] = test system: islet cells; assay: Streptozotocin-induced islet cell death in vitro; type: cell-based; conditions: for percentage necrotic cells: 10 μM Compound I added 24 h before, mean ± SEM, n=3
# Method: It is tested whether Compound I protects against the diabetogenic drug streptozotocin in vitro.
# [4] = test system: ERK; assay: DETA/NO- and cytokine-induced ERK activation in rat islets (immunoblotting); type: cell-based; conditions: for Phospho-ERK per total ERK: n=4; for Phospho-ERK: recalculated from Table 5
# Method: Connection between c-Abl and different MAP kinases: It is searched for a connection between c-Abl and the different MAP kinases p38, JNK and ERK that might act as down steam effectors of c-Abl. […] Islets are then analyzed for phosphorylation of p38, JNK2 and ERK1/2 using phosphospecific antibodies and immunoblotting.
# [5] = test system: isolated rat islets; assay: Cytokine-induced NO production (nitrite levels); type: cell-based; conditions: cytokines 24 h; cell type not stated at the place
# Excerpt: FIG. 1. […] Results are means± SEM for three independent observations.
# [6] = test system: NMRI mice; assay: Streptozotocin-induced diabetes in mice, blood glucose; type: in vivo; conditions: Compound I 200 mg/kg gavage
# Method: The animals have free access to tap water and pelleted food throughout the study. The bedding material is changed weekly. Weight and blood glucose are determined using the Pen Sensor (MediSense, Waltham, Mass., USA) prior to the experiment. […] On day 0 mice are injected with 120 or 160 mg/kg bodyweight of streptozotozin (Sigma-Aldrich Co. St. Louis, Mo., USA) in the tail vein. Streptozotocin is dissolved in 0.9% NaCl just prior to injection. Weight and blood glucose are determined on day 0, 1, 2, 3, 5, 7, 9 on blood samples collected from the tail. On day 9 the animals are sacrificed by cervical dislocation. All animal experimentation is approved by the local Animal Ethics Committee (Tierp, Sweden).
smiles,measurement,setting,value
CS(=O)(=O)O.Cc1ccc(NC(=O)c2ccc(CN3CCN(C)CC3)cc2)cc1Nc1nccc(-c2cccnc2)n1 [Salt I],effect on islet cell viability by itself,"[1]; 10 μM, no toxic agent",does not affect islet cell viability
same,Brefeldin-induced islet cell death (ER stress),[2],partially counteracts
Cc1ccc(NC(=O)c2ccc(CN3CCN(C)CC3)cc2)cc1Nc1nccc(-c2cccnc2)n1 [Compound I],protection against streptozotocin in vitro,[3]; 0.4 mM streptozotocin,"highly, significant"
same,percentage necrotic cells,[3]; 0.4 mM streptozotocin 6 h,7.3 ± 2.4 %
same,protection against streptozotocin in vitro,[3]; 0.6 mM streptozotocin,intermediate
same,percentage necrotic cells,[3]; 0.6 mM streptozotocin 6 h,41.3 ± 6.2 %
same,protection against streptozotocin in vitro,[3]; 0.75 mM streptozotocin,protects only weakly
same,percentage necrotic cells,[3]; 0.75 mM streptozotocin 6 h,75.3 ± 5.2 %
same,percentage necrotic cells,[3]; Control (no streptozotocin),0.5 ± 0.2%
same,Phospho-ERK per total ERK,"[4]; Compound I alone, 10 μM 24 h pre-incubation",174 ± 94% of control
same,Phospho-ERK per total ERK,[4]; Cytokines 20 min + 10 μM Compound I 24 h pre-incubation,1179 ± 64% of control
same,Phospho-ERK,[4]; Cytokines + 10 μM Compound I,123% of corresponding group without any Compound I addition
same,counteraction of DETA/NO-induced activation of ERK,"[4]; DETA/NO 2 mM 20 min, 10 μM Compound I, one range stated for p38, JNK and ERK",25-45%
same,Phospho-ERK per total ERK,[4]; DETA/NO 20 min + 10 μM Compound I 24 h pre-incubation,482 ± 162% of control
same,Phospho-ERK,[4]; DETA/NO + 10 μM Compound I,67% of corresponding group without any Compound I addition
same,cytokine-induced MAPK activation (ERK),"[4]; cytokines 20 min, 10 μM Compound I",augmented
same,more nitrite released from cytokine plus Compound I exposed cells as compared to cytokines alone,[5],35%
same,"necrotic cells, percentage of total cell number",[1]; Control (no toxic agent),3.2 ± 0.9%
same,"necrotic cells, percentage of total cell number",[1]; DETA/NO 0.5 mM,4.9 ± 1.2 %
same,cell death induced by the NO donor,"[1]; DETA/NO 0.5 mM, 10 μM",clearly counteracted
same,"necrotic cells, percentage of total cell number",[1]; IL-1β 25 U/ml + IFN-γ 1000 U/ml + TNF-α 1000 U/ml,32.8 ± 3.2 %
same,cytokine-induced islet cell necrosis,"[1]; IL-1β + IFN-γ + TNF-α, 10 μM",partially decreased
same,protection against streptozotocin-induced diabetes,[6]; 120 mg/kg streptozotocin injection,protects completely
same,protection against streptozotocin-induced diabetes,[6]; 160 mg/kg streptozotocin,protects partially
